Screen size: about 420,000 compounds; about 64,000 (15%) were called active. This list was built around the results that the source calls inconclusive (neither active nor inactive); the mix of calls is not that of the screen. Calls come from the whole dose curve; as a rule, active = well fitted inhibition curve with a large enough effect; inconclusive = small, poorly fitted or top-dose-only effect; inactive = flat fitted curve, though single readings scatter. No potency is given beside an inconclusive call; the fits are too rough.
Experiment: qHTS for Inhibitors of human tyrosyl-DNA phosphodiesterase 1 (TDP1): qHTS in cells in absence of CPT; note: nearly all actives have a fitted effect of over 55% in size
Details: DT40 Tdp1-/- hTDP1 cells, no CPT, ATP luminescence, 48 h; activity change, negative = growth inhibition: at 46.2 µM (top of the series) unless noted
Method in brief: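 Readout: luminescence from CellTiter-Glo after 30 min in the dark at RT. Cells: DT40 Tdp1-/- with stable hTDP1, 400/well. Exposure: compounds alone, ≥48 hr, 37 °C.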
% is set by controls: 0 for no effect and ±100 for the full control effect; potency is the fitted concentration of half-maximal effect; tags give direction and shape of the fitted curve.

SMILES	Potency	activity change, negative = growth inhibition
CN(C(=O)c1cccc(NC(=O)Cc2ccc(NC(=O)C3CCCN(C(=O)C4CC4)C3)cc2)c1)C1CC1 (stereo not given)	inactive	
CCc1ccc(NC(=O)CSc2nnc(-c3cnccn3)n2Cc2ccco2)cc1	inactive	
CCCn1c(=O)c2sccc2n2c(CCCC(=O)N3CCN(c4ccc(OC)cc4)CC3)nnc12	inconclusive [inhibitor, partial curve, poor fit]	
COC(=O)C1=C(O)/C(=C\c2ccc(CNC(=O)C(=O)Nc3ccc(C)c(C)c3)o2)N=C1C	inconclusive [inhibitor, partial curve]	
CCOc1ccc(NC(=O)CSc2nc3ccccc3nc2N2CCOCC2)cc1	active: 13 µM	
CC(C)NC(=O)c1c(CSc2ccc(Cl)cc2)noc1C(=O)NCc1ccccc1	inconclusive [inhibitor, single point]	
O=c1c(N2CCN(c3ccc(F)cc3)CC2)csc2ccc(F)cc12	inconclusive [inhibitor, single point]	
CCN(CC)C(=O)C(=O)c1cn(CC(=O)NCc2ccc3c(c2)OCO3)c2ccccc12	inactive	
Oc1c(Br)cc(/C=N/Nc2nncc3ccccc23)cc1Br	active: 23.1 µM	
O=C(c1cn(-c2ccccc2)nc1-c1cccs1)N1CCN(c2ccccn2)CC1	active: 20.6 µM	
COc1cc(-c2cc3nc(NCc4ccco4)ccn3n2)cc(OC)c1OC	active: 11.6 µM	
CCc1nc2c(OCc3ccccc3C(=O)OC)cccn2c1N(C)C(=O)c1cccc(OC)c1	active: 23.1 µM	
O=C(NC(=S)Nc1cccc(Cl)c1N1CCCCC1)c1ccco1	inconclusive [inhibitor, single point]	
Cc1ccc(-c2cc(C(=O)NCCCN3CCOCC3)c3ccc(Cl)c(C)c3n2)cc1	inconclusive [inhibitor, single point]	
COc1ccccc1OCc1nnc(SCC(=O)Nc2nnc(C3CC3)s2)n1C	inconclusive [inhibitor, full curve]	
CC1CCN(S(=O)(=O)c2ccc3nc(Nc4cccc(F)c4)ccc3c2)CC1	active: 20.6 µM	
Cc1ccc(-c2csc(N(C)C(=O)c3c(C)nn(-c4ccccc4)c3Cl)n2)cc1	inconclusive [inhibitor, single point]	
COc1ccc2[nH]c(C(=O)N3CCN(c4ccccc4F)CC3)c(C)c2c1	inconclusive [inhibitor, partial curve]	
COc1ccc(N(CC(=O)Nc2cc(Cl)ccc2OC)C2=NC3CS(=O)(=O)CC3S2)cc1 (stereo not given)	inactive	
CCCC(=O)Nc1cccc(NC(=O)c2ccc(C)c([N+](=O)[O-])c2)c1	inconclusive [inhibitor, single point]	
Cc1ccccc1OCCC(=O)Nc1cc(S(=O)(=O)N2CCOCC2)ccc1OC(C)C	inconclusive [inhibitor, single point]	
CCOc1ccccc1N1CC(C(=O)N2CCc3ccccc32)CC1=O (stereo not given)	inconclusive [inhibitor, single point]	
CCCC(=O)NC(=S)NNC(=O)c1ccc([N+](=O)[O-])cc1	inconclusive [inhibitor, single point]	
O=C(c1cc(Sc2cccc(Cl)c2)nc2ccccc12)N1CCN(c2ccccn2)CC1	inconclusive [inhibitor, single point]	

SMILES	Potency	activity change, negative = growth inhibition
COC(=O)c1cc(-c2ccc(NC(C)=O)cc2)nc2ccccc12	inconclusive [inhibitor, partial curve]	
Cc1c(NC(=S)NC(NC(=O)CC(C)C)C(Cl)(Cl)Cl)c(=O)n(-c2ccccc2)n1C (stereo not given)	inactive	
O=C(Nc1cccc(Cl)c1)c1ccc2ncsc2c1	inactive	
COc1ccc(OC)c(/C(O)=C/C(=O)C(=O)Nc2ccccc2OC)c1	active: 18.4 µM	
Cc1ccc(-c2nc(CN3CCCCC3c3cccc(F)c3)c(C)o2)o1 (stereo not given)	inconclusive [inhibitor, single point]	
CC1(C)S[C@@H]2[C@H](NC(=O)C(NC(=O)N3CCNC3=O)c3ccccc3)C(=O)N2[C@H]1C(=O)O (stereo not given in full)	inactive	
CN(c1ccccc1)c1ccc(/C=C(\C#N)c2nnc3n2CCCCC3)cc1[N+](=O)[O-]	active: 11.6 µM	
CN(CC(=O)Nc1ccc(Cl)cc1)C(=O)c1ccc(-n2cncn2)c([N+](=O)[O-])c1		inconclusive: -32.7% [inhibitor]
CCC(C(=O)NCc1ccc(F)cc1)N(CCc1ccccc1)C(=O)c1snc(C(N)=O)c1N (stereo not given)	inconclusive [inhibitor, single point]	
COc1ccc(C)cc1S(=O)(=O)N(C)CC(=O)NCc1ccccn1	inactive	
CC(C(=O)c1ccc(-c2ccccc2)cc1)[n+]1cccc(NC(=O)c2ccccc2)c1 (stereo not given)	active: 14.6 µM	
Cc1cccc(S(=O)(=O)C(C#N)c2nc3ccccc3nc2N2CC(C)OC(C)C2)c1 (stereo not given)	active: 25.9 µM	
Cc1ccc(S(=O)(=O)N2CCCN(S(=O)(=O)c3ccc(C)cc3)CC2)cc1	inconclusive [inhibitor, partial curve]	
COc1ccc(-c2cc(C(F)(F)F)nc(SCCC(=O)Nc3ccc(F)cc3F)n2)cc1	inconclusive [inhibitor, partial curve]	
COC(=O)c1cccc(NC(=O)NC2CCCN2S(=O)(=O)c2ccc(Cl)cc2)c1 (stereo not given)	inconclusive [inhibitor, single point]	
Cc1ccc(S(=O)(=O)N2CC3(O)CN(C(=O)OC(C)C)N(C(=O)OC(C)C)CC3(OC(=O)Nc3cccs3)C2)cc1 (stereo not given)	active: 18.4 µM	
O=C(c1ccc2c(c1)OCO2)N1CCCc2ccccc21	inconclusive [inhibitor, partial curve]	
CCOC(=O)CC1COc2ccccc2N1C(=O)c1cccc([N+](=O)[O-])c1 (stereo not given)	inconclusive [inhibitor, single point]	
C[C@H](NC(=O)c1nc[nH]c1C(=O)N[C@@H](C)C(=O)OC(C)(C)C)C(=O)OCc1ccccc1	inactive	
COc1ccc2cc(C(=O)Nc3ccc(S(N)(=O)=O)cc3)sc(=O)c2c1OC	inconclusive [inhibitor, single point]	
CNC(=O)c1cc2cc(OC)ccc2n1CCN(Cc1ccccc1)Cc1ccccc1	inconclusive [inhibitor, partial curve]	
CCC(C(=O)NCCCN1CCN(CCCNC(=O)C(CC)c2ccccc2)CC1)c1ccccc1 (stereo not given)	inconclusive [inhibitor, single point]	
CC1CCCCC1NC(=O)Cn1cnc2c1c(=O)n(C)c(=O)n2C (stereo not given)	inactive	
O=C(Nc1ccc(Cl)cc1Cl)C1=Cc2ccccc2OC1	inactive	

SMILES	Potency	activity change, negative = growth inhibition
CCO[C@H]1OC(C(=O)N2CCN(C)CC2)=C[C@@H](c2csc3ccccc23)[C@@H]1CCCO	inconclusive [inhibitor, single point]	
C[C@@H](CO)NC(=O)c1ccc2c3n(nc2c1)-c1ccc(Cl)cc1CO3	inconclusive [inhibitor, single point]	
CCN(CC)CCN(C(=O)c1ccc(C(=O)c2ccccc2)cc1)c1nc2c(OC)cccc2s1	inactive	
CCOC(=O)N1CCN(CC(=O)Nc2cc(C)nn2-c2nc3ccccc3s2)CC1	active: 23.1 µM	
C[C@@H]1[C@H](c2ccccc2)Oc2ccc(Cl)cc2S(=O)(=O)N1CC1CCCN1C(=O)OC(C)(C)C (stereo not given in full)	inconclusive [inhibitor, single point]	
COc1ccc2[nH]c(C)c(CCNC(=S)Nc3ccc(F)cc3)c2c1	active: 23.1 µM	
COc1cc(/C(C)=N/N2CCOCC2)cc(OC)c1OC	inactive	
COc1ccc(OC)c(NC(=O)Cc2coc3cc(C)cc(C)c23)c1	inconclusive [inhibitor, single point]	
COC(=O)c1ccc(NC(=O)c2cccnc2)cc1	inconclusive [inhibitor, single point]	
COc1cccc(Cn2c(=O)c(-c3cn(C)c4ccccc34)nc3cnc(N4CCNCC4)nc32)c1	active: 20.6 µM	
Cc1ccc(S(=O)(=O)NCC(=O)N(CC(=O)NC2CCCCC2)Cc2ccco2)cc1		inconclusive: -30.1% [inhibitor]
CCC(C(=O)OCC(=O)c1c(N)n(CC(C)C)c(=O)n(C)c1=O)c1ccccc1 (stereo not given)	active: 23.1 µM	
O=C(CSc1ccc2nc(-c3ccccc3)cn2n1)Nc1ccccc1	active: 25.9 µM	
COc1ccc(Br)cc1/C=C(\C(=O)O)c1ccc(S(=O)(=O)N2CCCCC2)s1	inactive	
Cc1ccc(/C=C2\SC(=S)N(/N=C/c3cc([N+](=O)[O-])ccc3O)C2=O)o1	inconclusive [inhibitor, single point]	
CCOC(=O)c1ccc(O)cc1	inactive	
O=C(/C=C/c1ccc2c(c1)OCO2)NCCS(=O)(=O)N1CCN(c2ccccc2)CC1	inconclusive [inhibitor, single point]	
CCOC(=O)C1CCCN(CCC(=O)Nc2ccc(Br)c(C)c2)C1 (stereo not given)	inconclusive [inhibitor, single point]	
COc1ccccc1-c1cc2nc(NCCOc3ccccc3)ccn2n1	active: 16.4 µM	
CN(CC(=O)NCc1ccccc1)CC(=O)Nc1ccc(Cl)c(C(F)(F)F)c1	active: 18.4 µM	
CC1CCC2(CC1)NC(=O)N(CC(=O)NCc1ccc(F)cc1)C2=O (stereo not given)	inactive	
c1ccc(Cn2c(-c3ccccc3)nc3nc4ccccc4nc32)cc1	active: 23.1 µM	
